# According to ChEMBL document CHEMBL1201862, “PubChem BioAssay data set” (2004):
# Test system: NCI-H322M
# Test: NCI anticancer screen, dose series, 48 h
row,Compound,GI50
1,CN1CCN(CC(=O)N2c3ccccc3Sc3cc4ccccc4cc32)CC1,inactive: 14.8 µM
2,O=C1C=CC(=NNc2ccccc2)C=CC1=O,inactive: 13 µM
3,O=[N+]([O-])c1ccc(NN=C2c3ccccc3Cc3ccccc32)c([N+](=O)[O-])c1,inactive: 4.23 µM
4,CC12C=CC(=O)C=C1CCC1C3CCC(O)(C(=O)CO)C3(C)CC(O)C12F (stereo unspecified),inactive: > 100 µM
5,Cc1cc(C)c(O)c(Cc2cccc(Cc3cc(C)cc(C)c3O)c2O)c1,inactive: > 100 µM
6,O=C(C=P(c1ccccc1)(c1ccccc1)c1ccccc1)c1ccc(-c2cccc([N+](=O)[O-])c2)cc1,inactive: 4.29 µM
7,Clc1nc(Cl)nc(NC23CC4CC(CC(C4)C2)C3)n1,inactive: 21.6 µM
8,C=CCOCn1ccc(=O)[nH]c1=O,inactive: > 100 µM
9,C/C(=C\c1ccc(Cl)c(Cl)c1)[N+](=O)[O-],inactive: 14.9 µM
10,CCOP(=O)(OCC)C1CC(O)CN1OC(=O)C(C)(C)C (stereo unspecified),inactive: > 100 µM
11,CCN(CC)CCC(=O)c1ccc(Sc2ccc(F)cc2)cc1,inactive: 15.3 µM
12,CC(C)(C)OC(=O)N(O)CCCn1cnc2c(N)ncnc21,inactive: > 100 µM
13,Cc1nc(O)nc(N/N=C/c2ccc(Cl)c(Cl)c2)c1C(=O)Nc1ccc(Cl)c(Cl)c1,inactive: > 35.1 µM
14,CCOC(=O)COc1ccc2c(C)cc(=O)oc2c1,inactive: > 100 µM
15,NS(=O)(=O)c1ccccc1C(=O)N/N=C(\c1nc2ccc([N+](=O)[O-])cc2[nH]c1=O)C(O)c1ccc([N+](=O)[O-])cc1 (stereo unspecified),inactive: > 100 µM
16,COC1OC(COS(=O)(=O)c2ccc(C)cc2)C(O)C(OS(=O)(=O)c2ccc(C)cc2)C1OS(=O)(=O)c1ccc(C)cc1 (stereo unspecified),inactive: > 100 µM
17,Cc1cccc2c(N)c3cccc(C(=O)NCC[N+](C)(C)Cc4c([N+](=O)[O-])ncn4C)c3nc12,inactive: 40.6 µM
18,CCCCS(=O)(=O)CCC(N)P(=O)(O)O (stereo unspecified),inactive: > 100 µM
19,CC(CCC=O)CCOCc1ccccc1 (stereo unspecified),inactive: > 100 µM
20,O=C(CC(=O)C(=O)Nc1ccccc1)CC(c1ccccc1)c1c(O)c2ccccc2oc1=O (stereo unspecified),inactive: > 100 µM
21,CC1(c2cccc(C(F)(F)F)c2)CC(c2cccc(C(F)(F)F)c2)=C(C#N)C(=C(C#N)C#N)N1 (stereo unspecified),inactive: 15.8 µM
22,COC1CCON1C(=O)c1ccccc1 (stereo unspecified),inactive: > 10 µM
23,CC(=O)O[C@H]1CC2C=CC3C(CCC31)O2 (stereo partly specified),inactive: > 100 µM

row,Compound,GI50
1,Cn1c(=O)c2sc3cc4c(cc3c2c2ccccc21)sc1c(=O)n(C)c2ccccc2c14,inactive: > 100 µM
2,Fc1ccccc1CN1COc2c(cc(Cl)c3cccnc23)C1,inactive: 2.11 µM
3,C=C(C1=CC(=O)C(C)(C)O1)[C@@H]1CC=C([C@@H]2CC[C@H]3[C@@]2(C)CC[C@H]2C(C)(C)C(=O)[C@H](O)C[C@]32C)[C@H](O)O1,inactive: 11.8 µM
4,COC(=O)c1cc2c3c(cc(NCCN)c2[nH]1)N(C(=O)c1cc2cc(OC)c(OC)c(OC)c2[nH]1)CC3CCl (stereo unspecified),active: 0.0638 µM
5,CCCCCCCCCCCCCCCCCc1nc(C#N)c(N)o1,inactive: > 100 µM
6,Cc1cc(C)c(S(=O)(=O)N(CCCN)OCCCN)c(C)c1,inactive: > 100 µM
7,S=C(N/N=C(/c1ccccc1)c1ccccn1)N(Cc1ccccn1)Cc1ccccn1,active: 0.112 µM
8,OCC1OC(n2cnc3c(Cl)nc(Nc4ccc(Cl)c(Cl)c4)nc32)CC1O (stereo unspecified),inactive: 15.8 µM
9,CC(=O)NC1=CC(=O)c2cc(C)cc(O)c2C1=O,inactive: 17.6 µM
10,COc1c(O)c(O)c2c(c1O)C(=O)c1cc(C)cc(O)c1C2=O,inactive: 44.1 µM
11,Clc1ccc(C2ON=C(c3ccccc3)N2C23CC4CC(CC(C4)C2)C3)cc1Cl (stereo unspecified),inactive: > 10 µM
12,CCOC(=O)C(Cc1c[nH]c2cc([N+](=O)[O-])ccc12)NS(=O)(=O)c1ccc2ccccc2c1 (stereo unspecified),inactive: 22.7 µM
13,CCOC(=O)C(/C(=N/NC(=O)OC)C(=O)Nc1ccc(C(C)=O)cc1)c1cnc2ccccc2n1 (stereo unspecified),inactive: > 100 µM
14,O=C1c2ccccc2C(=O)N1c1ccc(OCCN2CCCCC2)cc1,inactive: > 100 µM
15,C=CC1(c2ccc3ccccc3c2)OCC(CC)(CC)CO1,inactive: 20.6 µM
16,Clc1cc(OC2C3CC4CC(C3)CC2C4)nc(Cl)n1 (stereo unspecified),inactive: 17.3 µM
17,O=C(/C=C(\O)c1cc(-c2ccccc2)n(-c2ccccc2)n1)c1ccccc1,inactive: 11 µM
18,CCSc1n/c(=C\c2ccco2)c2nncn12,inactive: > 100 µM
19,Cc1nc(N)nn1C1OCC(O)C(O)C1O (stereo unspecified),inactive: > 100 µM
20,Nc1ccc(Cc2ccc(/N=C\c3ccc(OCc4cccc(COc5ccc(/C=N\c6ccc(Cc7ccc(N)cc7)cc6)cc5)n4)cc3)cc2)cc1,inactive: > 100 µM
21,CCCCOC(=O)C1CN2C=CC=NC2=NC1(C(F)(F)F)C(F)(F)F (stereo unspecified),inactive: > 100 µM
22,CCOC(=O)C1=C(c2ccccc2)N(C)c2ccccc2S1,inactive: 48.5 µM
23,CC(=O)Nc1ccc(-c2nnc(SCC(=O)Nc3cccc(Cl)c3)o2)cc1,inactive: 19.1 µM

row,Compound,GI50
1,CCOC(=O)CSC1NC(C(=O)OC)CC1OC (stereo unspecified),inactive: > 100 µM
2,COc1ccc2nc(NC(=O)C(=O)C(C#N)c3ccc([N+](=O)[O-])cc3)sc2c1 (stereo unspecified),inactive: > 100 µM
3,O=C1C=C(Nc2cc(Cl)ccc2Cl)c2ccccc2C1=O,inactive: 13.8 µM
4,CCOC(=O)/C=C(/OCC)[C@@H]1C(C(=O)c2ccc(Cl)cc2)[C@@H]1/C(=C\C(=O)OCC)OCC (stereo partly specified),inactive: 53.7 µM
5,CCOC(=O)/C(=C\c1ccc(CO)o1)P(=O)(OCC)OCC,inactive: 50.5 µM
6,C#CCn1c(=O)c2cc(OC)c(OC)cc2n(CC#C)c1=O,inactive: > 10 µM
7,O=C(O)c1c(-c2cccc3ccccc23)sc(-c2cccc3ccccc23)c1C(=O)O,inactive: 60.1 µM
8,CN(C)C(=O)/N=C1\SC(=N\c2ccccc2)/C(=N/c2ccccc2)N1c1ccc([N+](=O)[O-])cc1,inactive: > 100 µM
9,CC1=NN(c2ccccc2)C2(C1)C(Cl)C(=O)N2c1nc2ccccc2s1 (stereo unspecified),inactive: 36.5 µM
10,CC[P+]1(c2ccccc2)[C@@H](C)CC[C@@H]1C,inactive: > 100 µM
11,OCC(O)C(OC1OC(CO)C(O)C(O)C1O)c1nn(-c2ccc(Cl)cc2)c2nc3cc(Cl)ccc3nc12 (stereo unspecified),inactive: > 100 µM
12,O=P12N(CCN1c1ccccc1)CCN2c1ccccc1,inactive: > 100 µM
13,CC1=NN(c2nc(N)nc(CSc3nc4n(c(=S)n3)CCN4)n2)C(C)(C)C1,inactive: 26.2 µM
14,COc1ccc(-c2cc(-c3ccc(O)cc3O)c(C#N)c(=O)[nH]2)cc1,inactive: 22.8 µM
15,Cc1cc(C)nc(SC(C)C(=O)N/N=C/c2ccc(OCc3ccccc3)cc2)n1 (stereo unspecified),inactive: 77.1 µM
16,CCCCCCOc1ccc(C(=O)NOCc2ccccc2)cc1,inactive: > 100 µM
17,COc1ccc(CNC2=N/C(=C\c3ccccc3Cl)C(=O)N2C)cc1,inactive: 35.8 µM
18,O=C(Nc1ccccc1)O/N=C1/CCCC/C1=C\c1ccccc1,inactive: 19.2 µM
19,C/C(=N\Nc1nc2ccccc2s1)c1cc(C)ncn1,active: 0.608 µM
20,CCOC(=O)c1c(C)n(-c2ccc(C)cc2)c2c1cc(O)c1[nH]c3c(c12)CCCC3,inactive: 19 µM
21,CCOP(=O)(OCC)C1=C(c2ccccc2)OC(N)=C(C#N)C1c1ccc(Cl)cc1 (stereo unspecified),inactive: > 100 µM
22,Nc1nc(Cl)cc(NCCCCCNc2cc(Cl)nc(N)n2)n1,inactive: 24.5 µM
23,O=CN1CCN(C=S)CC1,inactive: > 100 µM

row,Compound,GI50
1,Cn1c(=O)cc(NNc2ccc(Br)cc2)[nH]c1=O,inactive: 3.75 µM
2,O=C1/C(=C/c2ccc(Cl)cc2)NC(=S)N1CN1CCOCC1,inactive: > 100 µM
3,COc1ccc2c(CCN)c(C(=O)O)[nH]c2c1,inactive: > 100 µM
4,COC(=O)C1=CO[C@@H](OC2OC(CO)C(O)C(O)C2O)[C@@H]2[C@H](C)[C@@H](O)[C@@H](O)[C@]12O (stereo partly specified),inactive: > 100 µM
5,COc1ccc(/C(Cl)=C(\C=O)c2ccccc2)cc1OC,inactive: 31.3 µM
6,CCOC(C)OCC#CCCBr (stereo unspecified),inactive: > 100 µM
7,O=C1CC[C@@H](NC(=O)Cc2ccccc2)C(=O)N1,inactive: > 100 µM
8,NC(=O)N1N=C2c3ccccc3OC[C@H]2[C@@H]1c1ccccc1,inactive: 5.65 µM
9,O=C(NC(=O)c1cn(CCN2CCNCC2)c(=O)[nH]c1=O)OCc1ccccc1,inactive: > 100 µM
10,CCOC(=O)CCC(C(=O)OCC)n1nnc2cc(Nc3c(C)[n+]([O-])c4cc(Cl)ccc4[n+]3[O-])ccc21 (stereo unspecified),inactive: > 100 µM
11,CC(C)(CC#N)c1cc(CC(C)(C)c2cc(CC(C)(C)c3cc(C(C)(C)C4(C)OCCO4)no3)no2)no1,inactive: 36.2 µM
12,Cn1c(=N)n[n+]([O-])c2ccccc21,inactive: 16.1 µM
13,CCOC(=O)C1S(=O)(=O)OCCOS1(=O)=O,inactive: > 100 µM
14,COc1ccc(C)cc1NC(=S)N/N=C/c1ccco1,inactive: 40.7 µM
15,CC1(C)[C@@H]2C[C@H]1c1cnc(-c3ccccn3)cc1C2CCCCC[C@@H]1c2cc(-c3ccccn3)ncc2[C@@H]2C[C@H]1C2(C)C (stereo partly specified),inactive: 3.13 µM
16,CC12CCCC(C(=O)O)(C1)[C@H](C(C)(C)C(=O)O)CC2 (stereo partly specified),inactive: > 100 µM
17,C=C1C(OC2O[C@@H]3O[C@@]4(C)CC[C@H]5[C@H](C)CC[C@@H](C2=C)[C@@]35O4)O[C@@H]2O[C@@]3(C)CC[C@H]4[C@H](C)CC[C@@H]1[C@@]24O3 (stereo partly specified),inactive: > 50 µM
18,O=C1Nc2ccc([N+](=O)[O-])cc2/C1=N/NC(=S)Nc1ccc([N+](=O)[O-])cc1,inactive: 24.3 µM
19,CON(C)C(=O)C(C)NC(=O)OCc1ccccc1 (stereo unspecified),inactive: > 100 µM
20,Cc1c(C(=O)/C=C/c2ccc([N+](=O)[O-])cc2)[n+]([O-])c2ccccc2[n+]1[O-],inactive: 51.6 µM
21,C=C1C(=O)O[C@@H]2[C@H]3O[C@]3(C)CCC=C(C)CC[C@@H]12,inactive: 19.5 µM
22,Cc1c2cccc-2c(OCCO)cc2c1[nH]c1ccccc12,inactive: 9.46 µM

#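 Assay format: 96-well plates, 48-hour exposure. At the GI50, growth is halved.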 The source made the active and inactive calls. Cut-off read from the data, not from the text of the source: active = GI50 up to about 1.1 µM and inactive = higher.
